Values joined by “and” are separate entries in the source; they are usually repeats but may differ in a detail not shown here. Equal values may be shown once. This is one part of the list. Many values rest on one well or one pass, so single values are uncertain.

For the experiment, the system named is Candida albicans DPL-15. As to the kind of experiment: growth (OD600) after compound treatment (apparently relative to screen median) (relative growth (fraction; screen median 1.02)); DPL-15 is a caspofungin-resistant clinical isolate; higher = more fungal growth (less antifungal activity). The following applies: 25 µM; RPMI 1640; 48 h; 30 °C.
Regarding `COC(=O)[C@]1(CC(C)C)NC=C(C(=O)c2ccccc2)[C@@H]1c1cccs1`, the growth is 1.16.
As for `O=C1OC(c2ccc(Br)cc2)c2cc(F)cc(OCC(F)(F)F)c21` (centres undefined), the growth stood at 1.21.
As for `COC(=O)C1=C(C)N(Cc2ccc(F)cc2)C(=S)NC1c1ccc(Cl)cc1` (centres undefined), the growth was 1.03.
For `COc1ccc(CN2C(=O)c3[nH]nc(CC(C)C)c3C2c2ccc(F)cc2)nc1` (centres undefined), the growth was determined as 0.961.
For the compound `CC(C)CC1=NCCN(C)C2=C1C(c1cccc(C(F)(F)F)c1)NC2=O` (centres undefined), the growth was 0.923.
With `COc1ccc(N2C(=O)c3[nH]nc(CC(C)C)c3C2c2ccc3c(c2)OCO3)cc1` (centres undefined) the figure was 1.07; with `COc1ccc(-c2c(C)c(C)cc3cc4c(cc23)OCO4)cc1`, 1.11.
As for `COc1ccc(C[C@H]2CO[C@H](c3ccc(OC)c(OC)c3)[C@H]2CO)cc1OC`, the growth stood at 1.06.
Regarding `CCCCCCCc1cc(C(F)(F)F)cc(Cl)n1`, the growth was 1.04.
Then `CC(C)=CC[C@H]1C[C@]23C[C@H](CC=C(C)C)C(C)(C)[C@](CC=C(C)C)(C(=O)C(C(=O)c4ccccc4)=C2OC1(C)C)C3=O`, with 1.37; and `C#CCC(C)(C)CNC(=O)[C@@H]1C[C@@H](O)CN1`, with 1.06; and `CC(C)C1=NCCN(C)C2=C1C(c1cccc(C(F)(F)F)c1)N(Cc1ccccc1)C2=O` (centres undefined), with 1.
Then `CC(C)c1nn(-c2ccc(OC(F)(F)F)cc2)c2c1C(c1ccccc1)NC2=O` (centres undefined), with 1.18; and `COC(=O)c1[nH]c2ccc(F)cc2c1[C@]12CCN(C(=O)Cc3ccc(C)cc3)[C@H]1Nc1ccccc12`, with 1.09; and `COC(=O)C1=C(C)N(Cc2ccccc2)C(NCc2cc(OC)c(OC)c(OC)c2)=N[C@H]1c1cccc(F)c1`, with 0.991.
Take `C=CCN1C(=O)[C@H]2[C@H]([C@H]3c4ccccc4[C@]2([C@@H](COC)OC)c2ccccc23)[C@@]1(O)c1ccccc1`: the growth was determined as 1.07.
With `COC(=O)C1=C(C)N(Cc2ccc(Br)cc2)C(=S)NC1c1cccc(F)c1` (centres undefined), the growth was 0.962.
Consider `CN(C)/N=C/c1c(O)cc(CO)cc1O`, for which the growth amounted to 1.04.
For the compound `CC(=O)[C@@H]1[C@@H](C)N(Cc2ccccc2)C(=O)N[C@H]1c1cccc(C(F)(F)F)c1`, the growth was 0.97.
As for `COc1cc2c(c(OC)c1OC)C[C@@H]1COC(=O)[C@H]1Cc1c-2cc(OC)c(OC)c1OC`, the growth was 1.11.
Consider `COC(=O)C1=C(C)N(Cc2ccc(C(F)(F)F)cc2)C(NCc2cccc(C(F)(F)F)c2)=NC1c1ccccc1` (centres undefined), for which the growth is 1.11.
Take `COCOc1cc(O)c2c(=O)cc(-c3ccccc3)oc2c1`: the growth turned out to be 1.05.
With `COc1cc(OC)c2c(ccc3c(OC)ccc(O)c32)c1` the figure was 1.1; with `COc1ccc([C@@]23Oc4cc(OC)cc(OC)c4[C@]2(O)[C@H](O)[C@H](C(=O)c2nccn2C)[C@H]3c2ccccc2)cc1`, 1.11.
Take `CC1=CCO[C@@]12C(=O)c1cc(Cl)ccc1O[C@@]2(OCCc1ccccc1)c1ccc(Cl)cc1`: the growth came out at 0.859.
For `CC(=O)C1=C2C=CCCN2C(=O)NC1c1ccc(C(F)(F)F)c(F)c1` (centres undefined), the growth was found to be 1.05.
For the compound `C[C@@H]1CC[C@H]2C(=O)O[C@H](CN=[N+]=[N-])CN2[C@H]1c1ccc(Br)cc1`, the growth stood at 0.93.
For the compound `COc1cc2c(cc1OC)CN(CCc1ccc(N)cc1)CC2`, the growth amounted to 1.09.
As for `CC(C)C1=NCCN(C)C2=C1C(c1ccccc1)N(c1ccccc1)C2=O` (centres undefined), the growth stood at 0.941.
On to `COC(=O)C1=C(C)N(C)C(NCc2ccc(C(F)(F)F)cc2)=NC1c1ccc(Cl)cc1` (centres undefined), for which the growth worked out at 0.978.
On to `CC(C)n1cc(Nc2cc(O)cc(O)c2C(=O)N2CCC(F)(F)C2)cn1`, for which the growth worked out at 1.12.
On to `CC(C)C[C@@H](O)COc1cc2c(cc1C1(c3cc4c(cc3OC[C@H](O)CC(C)C)OCO4)C(=O)Nc3cc(F)ccc31)OCO2`, for which the growth was found to be 0.739.
Then `CC(C)c1c2c(nn1-c1ccccc1)C(=O)NC2c1cccc(C(F)(F)F)c1` (centres undefined), with 0.959.
As to `C=CC[C@@H](C[C@@]12C[C@H](CC=C)C(C)(C)[C@@](C(=O)c3ccccc3)(C(=O)C=C1O)C2=O)C(=C)C`, the growth was determined as 1.04.
Regarding `COC(=O)C1=C(C)N(Cc2ccc(Br)cc2)C(=S)NC1c1ccc(OC)cc1` (centres undefined), the growth turned out to be 1.
As for `O=S(=O)(c1ccccc1)N1CCCc2nc(-c3ccc(Br)cc3)ccc21`, the growth amounted to 0.931.
Consider `C=CCN1C(=O)C2=C(C(C(C)C)=NCCN2)C1c1ccccc1` (centres undefined), for which the growth is 0.956.
Regarding `COC(=O)C1=C(C)N(Cc2cccc(C(F)(F)F)c2)C(=S)NC1c1cccc(Cl)c1` (centres undefined), the growth was found to be 0.881.
As for `COc1ccc(CN2C(=O)c3[nH]nc(CC(C)C)c3C2c2ccc(F)cc2)cc1` (centres undefined), the growth came to 0.945.
Take `CO[C@@H]1[C@H](O)CC[C@]2(O)CN(c3ccc4ncsc4c3)[C@@H](CC=C(C)C)[C@](C)(O)[C@@H]12`: the growth amounted to 0.931.
For the compound `CC(=O)OC[C@H]1O[C@H](C#Cc2cccc(C)c2)C=C[C@@H]1OC(C)=O`, the growth stood at 0.869.
Take `O=C1N[C@H](c2ccccc2)CO/C=C\C=C\c2cccc(n2)C(=O)N2C[C@H](O)C[C@@H]12`: the growth amounted to 1.05.
With `Cc1nn(Cc2ccccc2)c2c1C(c1cccc(C(F)(F)F)c1)NC2=O` (centres undefined) the figure was 0.894; with `C=C(C)[C@]1(O)C[C@@H](C)[C@]2(O)[C@@H]3CCC4(OCCO4)[C@@]3(O[Si](C)(C)C)CC(C)=C[C@@]23O[C@@H]13`, 1.02; with `CC(C)CC1=NCC(C)(C)NC2=C1C(c1ccc3c(c1)OCO3)N(c1ccccc1)C2=O` (centres undefined), 1.01.
Take `C[C@H]1O[C@H]2C3=C(CCOC3=O)[C@@H]1[C@@H]1C(=O)N(Cc3ccccc3)C(=O)[C@@H]12`: the growth was 1.17.
Take `COc1ccc2c(c1)[C@@H](NC(=O)C(C)(C)C)[C@H](C)[C@H]2c1ccccc1`: the growth was 1.2.
With `CO[C@@H]1[C@H](O)CC[C@]2(O)CN(CC3CCCCC3)[C@@H](CC=C(C)C)[C@](C)(O)[C@@H]12` the figure was 1.
Then `COC(=O)C1=C(C)N(Cc2ccc(C(F)(F)F)cc2)C(NCc2cc(OC)c(OC)c(OC)c2)=NC1c1cccc(Cl)c1` (centres undefined), with 0.854.
As to `COc1ccc(OC[C@H]2C=C(C)C[C@@]3(O2)C(=O)N(Cc2ccccc2)c2ccccc23)cc1`, the growth amounted to 0.909.
Turning to `CC(=O)C1=C2C=CCCN2C(=O)NC1c1ccnc(F)c1` (centres undefined), the growth came to 1.1.
As for `C#CCOC[C@@H](NC(=O)[C@@H]1C[C@@H](O)CN1C(=O)c1cccc(-c2ccccc2/C=N/NS(=O)(=O)c2ccc(C)cc2)c1)c1ccccc1`, the growth amounted to 1.02.
As to `CC(C)C[C@@H]1NC(=O)C[C@@H]2C[C@H](C)[C@H](c3ccccc3)N2C1=O`, the growth was 1.03.
Then `COc1cccc(-c2cc(N)n(C)n2)c1`, with 1.02.
In the case of `CC(C)Cc1nn(-c2ccc(OC(F)(F)F)cc2)c2c1C(c1ccccc1)NC2=O` (centres undefined), the growth worked out at 0.937.
With `COC(=O)C1=C(C(=O)OC)[C@@H](c2ccco2)O[C@@H]1c1ccccc1` the figure was 1.11.
`COC(=O)C/C=C/[C@@H](C)[C@H](NC(=O)OCC(Cl)(Cl)Cl)c1ccccc1`: the growth was found to be 0.919.
On to `C=CC[C@](C)(Nc1ccc(OC)cc1)C(=O)OCC`, for which the growth stood at 0.982.
Regarding `COCCN1C(=O)[C@H]2C[C@@]13O[C@H](c1ccccn1)N=C3C[C@H](c1ccccc1)[C@H]2C`, the growth amounted to 1.04.
Consider `COc1ccc(C#C[C@@H]2C=C[C@H](OC(C)=O)[C@@H](COC(C)=O)O2)cc1`, for which the growth came to 0.884.
As for `Cc1cc(O)c2c(c1)OC(C=O)CC2=O` (centres undefined), the growth was determined as 0.98.
For the compound `C=CCN1C(=O)C2=C(C(c3ccccc3)=NCCN2)C1c1ccccc1` (centres undefined), the growth turned out to be 0.916.
With `COc1cc2c(cc1OC)CN(CCc1ccc(NC(=O)c3cccc4c(=O)c5cccc(OCc6ccccc6)c5[nH]c34)cc1)CC2`, the growth turned out to be 0.933.
Turning to `CC(C)(C)NS(=O)(=O)OCCCc1ccccc1`, the growth was determined as 1.1.
On to `COC(=O)c1[nH]c2ccccc2c1[C@]12CCN(C(=O)Cc3ccc(C)cc3)[C@H]1Nc1ccccc12`, for which the growth turned out to be 0.911.
As to `COc1ccc([C@]23Oc4cc(OC)cc(OC)c4[C@](O)([C@H](C(=O)OCc4ccccc4)[C@H]2c2ccccc2)[C@@H]3O)cc1`, the growth was determined as 1.11.
Regarding `COc1ccccc1N1C(=O)c2[nH]nc(CC(C)C)c2C1c1ccsc1` (centres undefined), the growth amounted to 0.979.
Turning to `COc1ccc([C@H]2c3cc4c(cc3C[C@@H](C)[C@@H]2C)OCO4)cc1OC`, the growth was found to be 1.15.
For `c1cc2c3c(ccc4c3c1OCO4)OCO2`, the growth was found to be 1.06.
Turning to `CC(C)c1nn(Cc2ccccc2)c2c1C(c1ccc3c(c1)OCO3)NC2=O` (centres undefined), the growth was 1.09.
On to `COc1ccc([C@@]23Oc4cc(OC)cc(OC)c4[C@]2(O)[C@@H]2OC(=O)[C@@H]2[C@H]3c2ccccc2)cc1`, for which the growth was 1 and 1.11.
As for `O=C(c1c(O)cc(O)cc1Nc1ccnn1Cc1ccoc1)N1Cc2ccccc2C1`, the growth is 1.03.
In the case of `COC(=O)c1cc2c(c3c4cc(OC)ccc4n(S(=O)(=O)c4ccc(OC)cc4)c13)C(=O)N(Cc1ccc(C)cc1)C2`, the growth was found to be 0.99.
On to `c1ccc(COCn2c(-c3nc4nccnc4n3COCc3ccccc3)nc3nccnc32)cc1`, for which the growth stood at 1.04.
Consider `COc1ccc(-c2oc3cc(OC)cc(OC)c3c(=O)c2O)cc1`, for which the growth is active: 0.18.
Consider `CCCc1cc2c(OC)ccc(O)c2c(=O)o1`, for which the growth is 1.03.
For the compound `COc1ccc(-c2ccc3c(n2)CCCN3)cc1`, the growth amounted to 1.05.
Take `CC1(C)[C@H](CO)[C@@H]1COCc1ccccc1`: the growth stood at 1.29.
Regarding `CNCCOc1ccc2c(c1)O[C@@]1(c3ccc(Cl)cc3)[C@H](c3ccccc3)C[C@H](O)[C@@]21O`, the growth was determined as 0.866.
